The results in this text go back to the supplement of paper PMC3334620.

Whole data set: some 33,000 sequences, median “E-score (-0.5 to 0.5)” near -0.043, cut for the highest 2% near 0.37. Some of the results follow.

The target in the test is T1, Upc2 (UniProt Q12151).
T1 sequence: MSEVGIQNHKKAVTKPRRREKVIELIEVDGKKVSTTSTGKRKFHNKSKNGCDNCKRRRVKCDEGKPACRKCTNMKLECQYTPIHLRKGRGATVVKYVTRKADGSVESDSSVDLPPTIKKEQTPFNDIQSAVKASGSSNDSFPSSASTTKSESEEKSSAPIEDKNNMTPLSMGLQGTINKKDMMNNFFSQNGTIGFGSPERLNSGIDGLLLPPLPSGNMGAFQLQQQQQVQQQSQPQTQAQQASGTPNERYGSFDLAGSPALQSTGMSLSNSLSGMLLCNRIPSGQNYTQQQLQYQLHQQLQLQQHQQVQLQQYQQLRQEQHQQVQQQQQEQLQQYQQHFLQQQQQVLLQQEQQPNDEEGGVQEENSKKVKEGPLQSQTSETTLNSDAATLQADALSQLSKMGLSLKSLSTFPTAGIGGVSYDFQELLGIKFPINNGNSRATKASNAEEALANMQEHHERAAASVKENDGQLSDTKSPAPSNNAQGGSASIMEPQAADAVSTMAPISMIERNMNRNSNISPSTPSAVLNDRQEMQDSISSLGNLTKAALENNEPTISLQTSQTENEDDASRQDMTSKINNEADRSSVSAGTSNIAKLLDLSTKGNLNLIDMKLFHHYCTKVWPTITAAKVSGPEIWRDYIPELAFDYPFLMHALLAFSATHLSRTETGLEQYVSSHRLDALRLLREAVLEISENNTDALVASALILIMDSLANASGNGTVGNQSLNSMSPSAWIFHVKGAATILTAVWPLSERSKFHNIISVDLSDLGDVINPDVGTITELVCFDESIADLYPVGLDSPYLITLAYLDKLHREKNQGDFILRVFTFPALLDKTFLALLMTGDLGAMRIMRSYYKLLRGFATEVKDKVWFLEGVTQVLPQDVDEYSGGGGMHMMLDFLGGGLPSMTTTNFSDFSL
In words: PBM E-score (8-mer binding enrichment) (E-score (-0.5 to 0.5)); higher = stronger / more preferred TF binding; most listed sequences are background and not binding sites. The note with it: protein concentration: 200 nM; construct: GST-full length. The essentials:
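E-scores (a modified Wilcoxon-Mann-Whitney statistic) were assigned by the Universal PBM Analysis Suite to every ungapped eight-base word pooled with its reverse complement. The input came from universal all-10-mer Agilent arrays made double-stranded by primer extension and probed with GST-tagged yeast transcription factors at about 100-200 nM. Fluorescent anti-GST detected bound protein, and masliner normalised the scans.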
With GGGCACCC, the “PBM E-score” value is -0.208.
As for ACCAGTAT, the figure is 0.0479; as for TACCACTA, 0.0459.
As for AAGAAACA, the figure is -0.0862; as for ACCTGGCA, -0.0766; as for ATCTTATG, -0.173.
For ACTGGGTA the value was 0.158; for AAATTTCA, -0.169; for GTAGACCA, -0.114.
As for AATATCGT, the “PBM E-score” value is 0.29.
For TGCTAACA the value was -0.196; for CGTTTCAA, 0.243; for ATTGGATA, -0.216.
For GATGGCGA the value was -0.0169; for AGAATACA, -0.0142.
Consider AGGGCAGG, for which the “PBM E-score” value was -0.26.
As for CGGGAGGA, the figure is -0.157; as for CTCCAATA, -0.167.
In the case of CAATTAGG, the “PBM E-score” value is -0.0068.
For ACAAAGGA the value was -0.0862; for ATCGGCCG, -0.0746; for CACCTATA, 0.178.
For AGACGTCG the value was 0.0764.
On to GACGGTAA, for which the “PBM E-score” value turned out to be 0.0512.
In the case of GCCCTGAC, the “PBM E-score” value is -0.192.
In the case of TACACTGA, the “PBM E-score” value turned out to be 0.122.
For GAAGCGAA the value was 0.173; for ATGATTAA, 0.103; for TCACACGA, 0.237.
For ACAGACTG the value was -0.0187; for ACATTCGT, 0.375; for AGTATCGG, -0.0323.
As for AACGGGGT, the figure is 0.182; as for GTAAAGAC, 0.178.
Regarding CACTGAGC, the “PBM E-score” value is -0.194.
As for GTGAGAAC, the figure is -0.188.
With AGGGATCA, the “PBM E-score” value is -0.0474.
For ATTAATTC the value was 0.175.
As for AGCAACCC, the figure is 0.0667; as for CCCTCAAA, -0.114.
For TAGCCGCA the value was -0.295; for GTCATGGA, -0.185; for CGGAAACC, -0.116.
Regarding ACAAATGC, the “PBM E-score” value was found to be 0.109.
As for AGAAAACA, the figure is 0.114; as for AAAGGACA, -0.0892; as for CATCGTTA, 0.324.
As for GACCTCAC, the figure is -0.212; as for TCCCAGCA, -0.123; as for CATTGTGG, -0.226.
ATTCATTA: the “PBM E-score” value is -0.0383.
Take CGGTATAA: the “PBM E-score” value is 0.267.
As for AACAGATT, the figure is -0.0821; as for CGGGTTTC, -0.00388; as for AAGCCGTG, -0.0887.
As for AGGCCTAC, the figure is -0.0129.
Turning to ATATCCTG, the “PBM E-score” value is -0.0367.
For CGGTTAAC the value was 0.239; for GGCTTACC, -0.134; for AAAACACT, 0.0262.
For CTTCACTC the value was 0.00635.
For CGTTAAGC the value was 0.432; for AAAACGCC, -0.0196; for GAGGGCCA, -0.084.
On to CTGTTGCA, for which the “PBM E-score” value was -0.131.
As for AGACTGGC, the figure is -0.2; as for GCTATCTA, -0.252; as for ACCTCTTC, -0.0247.
As for ACCTGCGC, the figure is -0.135; as for AGGGACGC, -0.0515.
For AGGCATCG the value was 0.212; for AACGAGAT, 0.417; for AGGCCCTC, -0.0342.
Take CCAAGTAC: the “PBM E-score” value was found to be 0.17.
As to AGAACGTC, the “PBM E-score” value is -0.066.
Regarding GATTCTCA, the “PBM E-score” value is -0.16.
For CAGCCTTC the value was -0.158; for GTACTGGA, 0.167.
For ACGTTGGA, the “PBM E-score” value is 0.0887.
Consider AGTCCCGC, for which the “PBM E-score” value is -0.286.
For GAACGTAA the value was 0.228; for CCCTAACA, -0.0595; for AAGCTGTC, 0.00604.
As for GAGTCTGC, the figure is -0.106; as for AATCGGGT, 0.0594.
For ACAACACC the value was 0.0369.
